Out of some 71,000 compounds screened, about 1,800 (2.5%) were called active. The inconclusive results got no clear call from the source; some entries with a clear call stand among them for comparison. The call rests on the fitted dose curve; in most records, active means well fitted activation curve with a large enough effect in the signal ratio, with a control signal flat (not every such curve was filed as active); inconclusive means small, poorly fitted or top-dose-only effect, or effect the other way, or a change in a side signal; inactive means flat fitted curve, though single readings scatter; the % refers to the signal ratio. Potencies beside an inconclusive call are fits to weak or partial responses and may not hold up. The source holds several records for some structures; these can differ, active in one and inactive in another.
Assay: Cell signaling CRE-BLA (Fsk stim); on activity change, negative = inhibition: % of control where 0% means no effect
Conditions: CHO CRE-bla reporter (cAMP response element driving beta-lactamase), forskolin EC10, beta-lactamase ratio; activity change, negative = inhibition: at 38.2 µM (top of the series) unless noted
Outline: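 Cells were plated overnight at 37 °C, exposed to compound titrations plus EC10 NKH 477 for 3 h, then given CCF4 dye for 2 h at room temperature. Blue/green (460/530 nm) ratio was converted to %Activity and AC50 values calculated.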
Potency means the concentration at half of the fitted maximal effect; tags describe the fitted curve by direction and shape.

Row | Structure (SMILES) | Potency | activity change, negative = inhibition
1 | Nc1nc2ccc(OC(F)(F)F)cc2s1 | active: 12.6 µM | 
2 | Cc1cc(C)nc(N2CCCC(C(=O)NCc3cccc(C(F)(F)F)c3)C2)n1 (stereo unspecified) |  | inactive: -2.44%
3 | COc1cccc(C(=O)/C=C/Nc2cc(C)ccc2O)c1 |  | inconclusive: -26.1% [fluorescent]
4 | Oc1ccccc1C(=S)N1CCCCCC1 |  | inactive: -12%
5 | COc1cc2c(cc1OC)C(c1cccs1)CC(=O)N2 (stereo unspecified) |  | inconclusive: 28.5%
6 | CCOC(=O)c1oc2nc(C)c3c(c2c1N)CC(C)(C)OC3 |  | inactive: 2.79%
7 | CCn1cc(C(=O)Nc2ccccc2C(=O)OC)c(=O)c2ccc(C)nc21 | inconclusive: 3.98 µM [rising, single point] | 
8 | CC1(C)CCCN(C(=O)c2coc(=O)c(Br)c2)C1 |  | inactive: -1.35%
9 | CN(Cc1cc(Br)cc(Br)c1O)Cc1c(O)ccc2ccccc12 |  | inactive: -3.19% [at 7.6 µM]
10 | COc1ccc(N2C(=O)CC(N3CCCC4CCCCC43)C2=O)cc1 (stereo unspecified) |  | inconclusive: 5.35% [at 7.6 µM]
11 | O=C(O)c1ccc(Br)c(S(=O)(=O)N2CCCC2)c1 | inconclusive: 0.316 µM [falling, partial curve] | 
12 | N=c1c(S(=O)(=O)c2ccccc2)cc2c(=O)n3ccccc3nc2n1Cc1ccco1 | inconclusive: 12.6 µM [rising, single point] | 
13 | O=C(CSc1nc2cc(Cl)ccc2s1)NC(=O)NCc1ccco1 |  | inconclusive: 23.4%
14 | CCOC(=O)Cn1c(=O)c2c(nc(N3CCCCC3)n2C)n(C)c1=O | inconclusive: 12.6 µM [rising, single point] | 
15 | O=S(=O)(c1ccccc1)N1CCN(C2CCCCCCC2)CC1 | inconclusive: 12.6 µM [rising, partial curve] | 
16 | COc1ccc2nc(SCC(N)=O)cc(C)c2c1 | inconclusive: 20 µM [rising, single point] | 
17 | COc1cc2cc(C)c3nnc(SCC(N)=O)n3c2cc1OC | inconclusive: 12.6 µM [rising, partial curve] | 
18 | CCc1ccc2c(c1)N(C[C@H](C)CN(C)C)c1ccccc1S2 |  | inactive: -6.41% [at 7.6 µM]
19 | COc1cc(O)c2c(O)c3c(c4c2c1[C@@]1(C4)C(C)=CCCC1(C)C)[C@H](O)[C@@]1(O)CC(=O)C(C(N)=O)=C(O)[C@]1(O)C3=O |  | inconclusive: -10.3% [at 7.6 µM]
20 | O=C(Nc1nc(-c2cccs2)cs1)c1ccc(S(=O)(=O)N2CCCCC2)cc1 |  | inconclusive: 11.3%
21 | CCSc1nc(-c2ccccc2)c(C#N)c(=O)[nH]1 | inconclusive: 15.8 µM [falling, single point] | 

Row | Structure (SMILES) | Potency | activity change, negative = inhibition
22 | Cn1c(-c2ccc3c(c2)OCO3)cnc1NCc1ccc(Cl)cc1 |  | inactive: -15.8%
23 | CC[C@H](C)C(=O)O[C@@H]1CCC=C2C=C[C@H](C)[C@@H](CC[C@H]3C[C@@H](O)CC(=O)O3)[C@H]21 |  | inactive: 3.4%
24 | COc1cc(NC(=O)CN(C)S(=O)(=O)c2ccc(C)cc2)cc(OC)c1 | inconclusive: 10 µM [rising, partial curve] | 
25 | N#CC1=C(N)SC(N)=C(C#N)C1Cc1ccccc1 |  | inconclusive: -29.5%
26 | O=C(Cn1c(=O)n(-c2ccc(F)cc2)c(=O)c2sccc21)N1CCCC1 |  | inconclusive: -12.5%
27 | c1cc2c3c(c1)ccc1cccc(c13)C2 |  | inactive: 5.83%
28 | CCC(C)[C@H](NC(=O)NCc1ccccc1Cl)C(=O)OC (stereo partly specified) | inconclusive: 31.6 µM [falling, single point] | 
29 | COc1ccc(OC)c2c(C)cc(NCCN3CCOCC3)nc12 | inconclusive: 12.6 µM [rising, single point] | 
30 | O=C(Nc1cccc(Oc2ccc3c(c2)C(=O)NC3=O)c1)c1ccco1 |  | inconclusive: 7.08%
31 | O=C(NC1CCCCC1)N(Cc1cc2cc3c(cc2[nH]c1=O)OCCO3)CC1CCCO1 (stereo unspecified) | inconclusive: 12.6 µM [rising, single point] | 
32 | CN1CCN(c2ncc3ncc(=O)n(Cc4ccc(F)cc4)c3n2)CC1 |  | inactive: 15.1%
33 | Oc1c(-c2cc(-c3ccco3)[nH]n2)ccc2ccccc12 |  | inactive: -14.5%
34 | COCCn1c(SCc2csc(-c3ccccc3)n2)nc2ccccc21 | active: 2.51 µM | 
35 | CCCc1nnc(SCC(=O)N2CCCC2)n1CC1CCCO1 (stereo unspecified) |  | inconclusive: -25.3%
36 | Cc1ccccc1OCCCCCn1ccnc1 |  | inconclusive: 11.8%
37 | CC(C)Cn1c(N)c(C(=O)COC(=O)c2cc(-c3ccco3)nc3ccccc23)c(=O)n(C)c1=O |  | inactive: 8.95%
38 | Cc1nc2ccc3nc(NC(=O)c4ccc(S(=O)(=O)N5CCOCC5)cc4)sc3c2s1 |  | inactive: -0.72%
39 | OC(COc1ccc(Cl)c2ccccc12)CN1CCN(c2ccccn2)CC1 (stereo unspecified) |  | inconclusive: -16.4%
40 | COCCCn1c(=NC(=O)c2ccc3c(c2)OCO3)c(C#N)cc2c(=O)n3cccc(C)c3nc21 | inconclusive: 0.794 µM [rising, full curve] | 
41 | CCCc1cc(=O)[nH]c(SCC(=O)NC(=O)c2ccccc2)n1 |  | inactive: -8.04%
42 | O=C(CC1(O)C(=O)Nc2ccccc21)c1ccc(-n2cccc2)cc1 (stereo unspecified) |  | inconclusive: -9.29%

Row | Structure (SMILES) | Potency | activity change, negative = inhibition
43 | CCN(Cc1cc2cc(C)ccc2[nH]c1=O)C(=O)c1cccc(OC)c1 |  | inconclusive: 32.6%
44 | CN1CCN(S(=O)(=O)c2ccc(NC(=O)C3CCCO3)cc2)CC1 (stereo unspecified) |  | inconclusive: 0.808%
45 | COC(=O)c1ccccc1NC(=O)c1cncc(Br)c1 | inconclusive: 12.6 µM [rising, single point] | 
46 | O=C(NCc1ccccn1)C1CCN(S(=O)(=O)c2cccs2)CC1 |  | inconclusive: 2.68%
47 | COc1ccc(OC)c(NC(=O)CSc2nnc(-c3ccco3)n2-c2ccccc2)c1 | active: 2.51 µM | 
48 | COc1ccc(C(=O)NCc2cn3ccccc3n2)cc1 |  | inactive: -8.76%
49 | CCOC(=O)C(NC(=O)CCC(=O)Nc1ccc(S(N)(=O)=O)cc1)C(O)c1ccccc1 (stereo unspecified) |  | inconclusive: -10.4% [at 7.6 µM]
50 | O=C(CN1CCCCC1)Nc1nnc(-c2ccccc2)s1 | inconclusive: 0.02 µM [rising, single point] | 
51 | NC(=O)c1cc2ccc(O)cc2oc1=NCc1ccccc1 | inconclusive: 2 µM [rising, full curve] | 
52 | CCOC(=O)N1CCN(C(=O)c2cn(C)c(=O)c3c2c2ccccc2n3C)CC1 |  | inactive: 4.06%
53 | O=c1c2[nH]c3cccc(Cl)c3c2ncn1CCN1CCCCC1 |  | inactive: -1.66%
54 | CCOCCCN1C(=O)CN(C2CCCCCC2)C(=O)C1c1ccc(OC)cc1 (stereo unspecified) |  | inconclusive: 9.41%
55 | CC(C)CCn1c(SCC#N)nc2c(sc3ccccc32)c1=O | active: 0.398 µM | 
56 | CC(C)C[C@H](NC(=O)N1CCN(c2ccccc2)CC1)C(=O)O |  | inconclusive: 17.4%
57 | C=CCn1c(SCc2csc(C)n2)nc2sc3c(c2c1=O)CCCCC3 | inconclusive: 2.51 µM [rising, full curve, poor fit] | 
58 | C=CCOC(=O)C(C#N)c1nc2ccccc2nc1N1CCN(Cc2ccccc2)CC1 (stereo unspecified) |  | inconclusive: -2.85% [fluorescent]
59 | COc1ccc(C(=O)Nc2cc(OC)ccc2OC)cc1 |  | inactive: 7.36%
60 | O=C1CN(C(=O)CN2CCCC2)C(c2ccccc2)c2cc(Br)ccc2N1 (stereo unspecified) |  | inconclusive: -13.7%
61 | CCc1nc2sc(C)c(C)c2c(=O)n1CCO | inconclusive: 12.6 µM [rising, single point] | 
62 | CCOC(=O)C1C(=O)OC2(CCOC(C)(C)C2)C1C(=O)OCC (stereo unspecified) |  | inactive: 3.88%
63 | COCc1cc(=O)n2c(-c3ccccc3OC)n[nH]c2n1 |  | inactive: -2.85%

Row | Structure (SMILES) | Potency | activity change, negative = inhibition
64 | O=C(CSc1n[nH]c(-c2ccncc2)n1)NC1CCS(=O)(=O)C1 (stereo unspecified) | inconclusive: 5.01 µM [falling, single point] | 
65 | Cc1sc2nc3c(C(=O)N4CCN(c5ncccn5)CC4)cccn3c(=O)c2c1C | inconclusive: 20 µM [rising, single point] | 
66 | O=c1c2ccccc2nnn1CSc1nc2cc(Cl)ccc2c(=O)n1Cc1ccco1 |  | inconclusive: -1.46%
67 | CCC/C=C(\CCC)C(NC(=O)C(C)(C)C)c1ccc(C(=O)OC)cc1 (stereo unspecified) |  | inactive: -2.88%
68 | COC(=O)C1CCN(C(=O)c2ccc(NC(C)=O)cc2)CC1 |  | inconclusive: 29.2% [at 7.6 µM]
69 | COc1ccc(-c2noc(CCC(N)=O)n2)cc1OC | inconclusive: 12.6 µM [rising, partial curve] | 
70 | Clc1ccccc1Cn1nnc2c(N3CCCC3)ncnc21 | inconclusive: 10 µM [rising, partial curve] | 
71 | Cn1nnnc1SCc1ccc(C(=O)Nc2nccs2)cc1 |  | inconclusive: 18.5%
72 | COc1ccc(N2CCN(Cc3nc4c(c(=O)n(C)c(=O)n4C)n3CCc3ccccc3)CC2)cc1 | inconclusive: 15.8 µM [rising, single point] | 
73 | COc1nc(-c2ccccc2)cc(-c2ccccc2)n1 | inconclusive: 12.6 µM [rising, single point] | 
74 | COC(=O)c1ccc(C(NC(=O)OCc2ccccc2)/C(C)=C/[C@@H](C)C(=O)NCc2cc(C)on2)cc1 (stereo partly specified) |  | inactive: -12.4%
75 | CCN(CC)CCCN1C(=O)C(=O)/C(=C(/O)c2cnn(-c3ccccc3)c2C)C1c1ccncc1 (stereo unspecified) |  | inactive: -15.6%
76 | COc1ccc(C2C3=C(CC(C)(C)CC3=O)Oc3ncn4nc(-c5cccnc5)nc4c32)cc1 (stereo unspecified) |  | inactive: -22.1%
77 | CN(C)CC(C(=O)c1ccccc1)c1ccccc1 (stereo unspecified) | inconclusive: 6.31 µM [falling, partial curve] | 
78 | COC(=O)c1oc2c(c1C)C1(CCC2)SCCS1 | inconclusive: 31.6 µM [rising, partial curve, poor fit] | 
79 | COc1ccc(C(=O)N2CCN(Cc3ccccc3C)CC2)cc1OC |  | inconclusive: -3.86%
80 | Cc1ccccc1-n1nc2c(c1NC(=O)c1c(-c3ccccc3Cl)noc1C)CSC2 |  | inconclusive: -11.9%
81 | CCn1c(SCC(=O)c2cc(OC)ccc2OC)nnc1-c1ccncc1 |  | inconclusive: -20%

Source: PubChem BioAssay AID662 (National Center for Advancing Translational Sciences (NCATS), 2007)
